# Source: the supplement of paper PMC3334620
# The full ranking holds about 33,000 sequences; the median of “E-score (-0.5 to 0.5)” is about -0.053, and the highest 2% start at about 0.37. The list shows a part of the results.
# Target: Hap1 (UniProt P0CE41)
# Assay: PBM E-score (8-mer binding enrichment) (E-score (-0.5 to 0.5)); higher = stronger / more preferred TF binding; most listed sequences are background and not binding sites
# Conditions: protein concentration: 200 nM; construct: GST-DNA-binding domain
# Procedure, shortened: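 Detection of bound protein used fluorescent anti-GST, with scans normalised by masliner. The proteins were GST-tagged yeast transcription factors applied at about 100-200 nM to universal all-10-mer Agilent arrays made double-stranded by primer extension. Each ungapped eight-base word, pooled with its reverse complement, was scored with an E-score from the Universal PBM Analysis Suite.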
# Chain of UniProt P0CE41 (P0CE41 whole entry): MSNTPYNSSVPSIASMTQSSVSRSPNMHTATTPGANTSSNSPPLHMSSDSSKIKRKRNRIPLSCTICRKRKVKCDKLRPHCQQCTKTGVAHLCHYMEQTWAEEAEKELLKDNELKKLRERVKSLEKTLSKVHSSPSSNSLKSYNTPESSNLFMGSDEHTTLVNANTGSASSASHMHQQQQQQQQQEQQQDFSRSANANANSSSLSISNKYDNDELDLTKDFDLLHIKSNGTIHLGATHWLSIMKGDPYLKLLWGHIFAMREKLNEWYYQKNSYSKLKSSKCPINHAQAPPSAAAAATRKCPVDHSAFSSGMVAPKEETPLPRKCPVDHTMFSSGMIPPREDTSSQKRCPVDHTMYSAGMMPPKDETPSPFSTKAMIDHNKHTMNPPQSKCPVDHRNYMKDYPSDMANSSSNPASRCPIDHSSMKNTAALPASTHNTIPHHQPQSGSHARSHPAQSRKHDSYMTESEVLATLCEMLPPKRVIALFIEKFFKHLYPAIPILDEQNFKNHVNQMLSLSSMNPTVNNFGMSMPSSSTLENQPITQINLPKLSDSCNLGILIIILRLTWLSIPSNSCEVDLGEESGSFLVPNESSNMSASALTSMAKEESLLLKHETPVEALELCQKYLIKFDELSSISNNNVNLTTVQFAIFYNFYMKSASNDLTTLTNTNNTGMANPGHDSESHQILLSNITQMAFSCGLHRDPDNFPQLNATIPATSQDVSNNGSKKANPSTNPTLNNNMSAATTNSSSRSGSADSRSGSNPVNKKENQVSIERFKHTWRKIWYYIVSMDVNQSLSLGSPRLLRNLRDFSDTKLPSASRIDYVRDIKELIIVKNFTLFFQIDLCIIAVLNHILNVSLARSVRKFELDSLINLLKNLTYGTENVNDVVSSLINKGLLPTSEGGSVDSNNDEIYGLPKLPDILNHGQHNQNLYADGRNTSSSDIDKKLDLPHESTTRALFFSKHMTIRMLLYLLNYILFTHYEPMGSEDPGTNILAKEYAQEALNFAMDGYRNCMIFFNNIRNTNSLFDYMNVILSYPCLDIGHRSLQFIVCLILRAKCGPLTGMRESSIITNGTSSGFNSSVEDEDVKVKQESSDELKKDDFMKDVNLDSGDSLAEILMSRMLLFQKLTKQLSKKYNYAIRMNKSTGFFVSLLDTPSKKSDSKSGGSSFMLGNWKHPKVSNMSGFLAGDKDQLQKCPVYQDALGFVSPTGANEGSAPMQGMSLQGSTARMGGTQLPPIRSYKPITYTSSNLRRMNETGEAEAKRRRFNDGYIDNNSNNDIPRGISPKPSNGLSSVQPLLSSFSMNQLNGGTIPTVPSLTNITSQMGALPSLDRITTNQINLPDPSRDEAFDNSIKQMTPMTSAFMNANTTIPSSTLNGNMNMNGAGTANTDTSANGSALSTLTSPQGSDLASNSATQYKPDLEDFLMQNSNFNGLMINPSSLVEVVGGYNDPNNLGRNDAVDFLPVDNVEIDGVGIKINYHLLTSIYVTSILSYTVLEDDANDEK
row,Sequence,PBM E-score
1,AAGAGAAA,-0.117
2,AATCAGGC,-0.0136
3,GTTAAAGA,0.0418
4,ACCCTCCT,-0.0844
5,GATTGAGC,0.0493
6,CAGTAGCA,-0.0737
7,ACGTACGA,-0.019
8,CAGCCGTA,0.00855
9,ATGGCGAG,-0.199
10,CACGATGA,-0.204
11,AGCCCGTG,0.0403
12,AGTATGGA,-0.0629
13,GGGCCGGA,0.355
14,GGTGCAAA,-0.137
15,ATACCAGA,-0.188
16,ACCAGACG,-0.265
17,AAGGGAAA,-0.191
18,CCGAAGCG,0.367
19,ACGAGGCC,0.0939
20,AACGGGGG,0.158
21,ATGGTGTG,-0.303
22,ACTTCCAC,0.0562
23,GCTTTCAC,-0.183
24,CATACTAG,-0.00017
25,ATGTTGCG,0.058

row,Sequence,PBM E-score
1,AGATCAAC,-0.284
2,AGGTACCA,-0.158
3,ATCTAAGC,-0.0574
4,ATCCAACA,-0.0248
5,CCTGTATC,0.022
6,GCCGAGTA,0.276
7,ACTGTGCG,-0.13
8,ATTGTGTG,-0.169
9,ACCTCCGA,0.391
10,AGGTTTTG,-0.104
11,CCCACACG,0.109
12,CACCCCCG,0.193
13,ACCGGTGA,0.318
14,GCCCTCCA,-0.236
15,CCATTACG,-0.0522
16,ATCTACCC,0.123
17,ACAACTCT,-0.18
18,ACAACTGA,-0.239
19,AAAGCAAT,-0.125
20,AACACAAC,-0.115
21,TGTCCTAA,-0.338
22,AAATACCA,-0.044
23,GAAGCTAC,-0.155
24,AGAGTATC,-0.19
25,GGCTTACA,-0.035

row,Sequence,PBM E-score
1,AAGGGACA,-0.319
2,TACGTATA,-0.234
3,GGATGGCA,0.064
4,GGGGCGAA,0.127
5,GTACCGTA,0.0486
6,GGAAAACA,0.139
7,GATTGGGC,-0.00882
8,CTCTATCA,-0.226
9,CAAACGTA,-0.118
10,ACTGACCT,-0.162
11,AGGCTACC,-0.16
12,CAGTACGG,-0.0384
13,ATGTTTTG,-0.128
14,GCGTCAGC,-0.0136
15,GCTTGCCC,-0.235
16,CGCTATAC,0.175
17,GTCTCAGA,-0.179
18,CGATAAAC,0.2
19,GATTAATA,0.0465
20,GGGGAATA,0.107
21,TAAAACAA,-0.157
22,ATAACGAC,-0.0175
23,ACCAGACC,0.0586
24,CCAACGAC,-0.205
25,GAGAATTA,-0.00799

row,Sequence,PBM E-score
1,ACCTCCGG,0.454
2,AGAATCCA,-0.115
3,GTATGTTA,0.0208
4,AAGATATT,-0.0114
5,CGACTCGC,0.0452
6,GATTAGTA,0.101
7,ACATATGT,-0.0834
8,AGCTCCCC,-0.093
9,CGATCTGA,-0.104
10,ACAGCGGC,0.0335
11,ACGGTGTC,0.0373
12,GACCGCTC,0.113
13,CTCTCCAG,-0.246
14,AAACCCGT,0.361
15,CCGGCTTA,0.342
16,GATTCAGA,-0.19
17,CCCTACAG,-0.258
18,ATCTTCAC,0.0153
19,ACGCTTCA,-0.302
20,AGGACAAA,-0.016
21,GCGCGATA,0.266
22,TGCAGAAA,-0.086
23,AAACCGCA,-0.0551
24,GACCCTGA,-0.224
25,CATCTATC,-0.00973

row,Sequence,PBM E-score
1,TCGGGACA,0.203
2,AGTAGGTG,-0.134
3,CACGTTCA,-0.197
4,CCCGGTTC,0.232
5,AAATTGCA,-0.12
6,ATTGAGTC,0.0706
7,AGTTGTCC,0.152
8,GTCTACGA,-0.188
9,CGGAACGA,0.2
10,GTCTAACA,-0.0178
11,CCAATCCC,0.0701
12,CAACTCTC,-0.134
13,AAGTTAAC,-0.0608
14,CGTATGTC,-0.015
15,ACTATCTC,0.0547
16,CAGTGCAA,-0.204
17,GTTTCTAA,0.105
18,CAAATTTG,0.141
19,TACACCCA,-0.0325
20,GGCGTTTA,0.343
21,GTTTACTA,-0.0613
22,ATAAATTA,0.0604
23,GTTGACGA,-0.128
24,CACCATAC,-0.112
25,ACCAGTCA,-0.153

row,Sequence,PBM E-score
1,GCTTCCCA,-0.178
2,CTATCAAC,-0.00788
3,TTAATGAA,-0.134
4,CTATGCTA,-0.104
5,ATATCGAT,-0.0219
6,AAAGCTTC,0.0623
7,ATGTTGAC,0.0672
8,GAGTCTAC,-0.0976
9,CAGGGGGA,-0.381
10,CCTTGCGC,-0.0225
11,CCTACACG,-0.273
12,ACAGCAGA,-0.116
13,CCAAAGGG,-0.212
14,GGACATCC,0.248
15,AAGCACTC,-0.0036
16,GCGGAGCA,0.211
17,ACTCGTCT,-0.189
18,AATTTCAC,-0.12
19,ACATCTTA,-0.273
20,CGCATAGC,-0.0115
21,ACGAAGAT,-0.253
22,ACACTGTC,-0.113
23,CCCACGAC,-0.142
24,TCGGGGAA,0.305
25,CGGGTTAG,0.218

row,Sequence,PBM E-score
1,AATTGAGC,-0.203
2,CCAACTCC,0.257
3,GAGTGAGC,-0.171
4,GGGAACAA,0.201
5,CTATTGGC,-0.0897
6,CGAGGGAA,0.00282
7,AGTCCGCG,0.297
8,AAGGTCAG,-0.291
9,ACTGTACT,-0.221
10,ATAATAGG,0.0266
11,ATCATGTC,-0.00168
12,CAGAGGGG,-0.222
13,CTCTATTA,-0.139
14,AAGGCTAG,-0.198
15,CGTTGGCC,0.052
16,ACCCTGTA,-0.0405
17,CTATTTTA,-0.147
18,ATCGTTAA,0.0671
19,CCAACAAG,-0.284
20,AGTGGTCC,0.0614
21,CCTGGTAC,-0.172
22,GTAATGTA,-0.162
